Experimental data: the supplement of paper PMC10126150
Sequences with one replicate were seen in a single cluster, so their values are uncertain.

System: ATP
Test: switch fluorescence ratio, 500 uM ATP over buffer (Cy3 cluster intensity, sum of 5 cycles each) (fold (ratio)); higher = stronger signal-on switching upon ATP binding; sequences stand for … in TCGTCGGCAGCGTCAGATGTGTATAAGAGACAGTTTTTTTTTTTTTTTTTTTTTTTTT…TC
Conditions: aptamer strand: ATP DNA aptamer (quencher-CACCTGGGGGAGTATTGCGGAGGAAGG + anchor), 100 nM annealed; ATP concentration: 500 uM; one replicate
Procedure, shortened: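 Cy3-labelled switching-strand clusters on a modified Illumina MiSeq flow-cell were annealed to 100 nM quencher-labelled ATP aptamer, imaged in selection buffer, then imaged after 15 min with 500 uM ATP at 22 °C. Five buffer/ATP cycles ran, with NaOH stripping and re-annealing between them. The fluorescence ratio is summed target-cycle over summed buffer-cycle Cy3 intensity per cluster, averaged per switch-domain sequence. Clusters outside 100-1000 RFU were excluded.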
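Note: ATP exposure 15 min at 22 °C before imaging.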

Sequence	switch fluorescence ratio
GGGATTTCTT	0.962
AGATGAAGAC	0.997
ACTGATGCGA	1.1
CGGATATTTT	1.07
GCAGTATTAG	1
CCTTTCCTAC	2.26
TTACGCTTCC	2.15
ATTTAGCTT	1.04
CCACGGTGT	2.21
CTGGTATGAG	0.931
GGCGCCTTTA	0.962
CAGGTGGTGC	1.09
AGCTCTACAG	1.02
ATGCGATTTC	1.08
TTGCCGGGTG	1.5
ATGAAACAGT	0.979
GCATCTG	1.02
AAGGTCTAAA	0.979
CCATAGACCT	1.32
AAGGAATATT	1.01
CAATAAACCG	1.12
TGAGATCGT	0.958
ATGTAAACCT	3.05
TCAATTAGAG	0.985
ATATCGGGTT	0.961
CGATCTTGT	1

Sequence	switch fluorescence ratio
TGGTCGGT	0.965
TGTTATGGAT	1.02
CTGTTATATT	1.06
CATGCTGAAG	0.993
GTGGTATTCA	0.975
ATAACGCTA	1.16
GACTATAGTA	1.02
ATGTATAGTA	1.01
GATGCTTACA	0.961
GTTTGGTGCG	0.99
TTCGGCCAGC	0.993
GGTAGGTCGG	0.962
TTCAGGGAAA	1.01
ACCTAGGGTC	1.06
TGGGTAAACT	1.08
GGGATCTCGT	1.02
ATAAGGTGCC	1.03
TTTGCTCTCA	0.996
CGACGATTTT	1.04
GAACCCTAGA	1.02
CATGGAAGTA	1
GACGCATGGA	1.98
GTGAGGAATG	1.03
ACAATTGAAT	0.972
TAAAGACCAT	1.02
TCTATCAAGT	1.01

Sequence	switch fluorescence ratio
TCTCGCCGAA	1.06
TTAATTAGCA	1.02
GATTCAGTTT	0.998
GTGCCCACAC	1.03
ATGAGGTGTC	1.02
AGCACTTGTG	1.02
TGCCTTATTG	0.951
TAACGGAAC	1.13
AAGATGCGTG	0.953
TGATGAACAC	1
TTATTATCGT	1.02
ATCGGGCCGT	0.975
GAATGTTCGT	0.993
CATGCGTCTG	0.956
CATTGTGATG	1
TCCCACTCCA	1.1
AATGTCCGAA	1
ACGTGATGCG	1.11
AACTGTTTTT	0.998
GGCAGCTGTA	0.95
GGGAACGAAT	1.03
TGATTACATG	0.986
AGGGAGCGTC	0.974
GTAAGTCCGC	1.11
CTGTTATATC	1.04
GACGAAGAAG	0.979

Sequence	switch fluorescence ratio
CCTCCTGGCT	1.7
TGCTCTTTGT	1.03
TTAAACCTAT	1.02
GCTTTGTGTC	0.992
CCAGGATACG	1.03
GTTCGGGTGG	1.04
CCAGTAAACT	1.07
CAATACGAGA	1.3
GAGAATAAGG	0.942
GCCTGGCAAG	0.981
AAATCTGCGG	1.03
AAATGAAGGA	1.03
AGGTGGGAGC	0.94
AGCTGCTGTT	1.03
GCAACTCTGT	1.03
TCGTTCGTC	0.971
GGACGTGAAA	1.01
AAGTTCCAGG	1.17
GCCTAATTGC	1.07
CTATGCTGTA	1.07
CCTTGTCTT	1.03
TGCCATACAA	1.02
TTTATCCATA	1.02
ATGTATTCTC	0.99
GGTAACTTGT	1.05
TTTCTTCGGC	1.28

Sequence	switch fluorescence ratio
TGGATTTGTT	0.946
GGGGACTTCT	0.997
CTCGGATTTA	0.983
CGAACCAAGC	1.51
CAGTAAGTAT	0.992
CGGGCATAGT	0.95
CTCAGCACGA	2.1
AATGCGTTCT	1.03
TAAATTGG	1
TGAGAATCAT	0.991
CGTAGGAGGT	1.03
AGGGAGCTCT	1.01
GACTATGCAG	1.07
GTCCATGCCT	1.03
ATTATCGGCT	0.956
ACACTAGAAA	1.06
CAAAGGTGTA	1.03
CTCTAGTATT	1.01
ATAGTTAAGA	1.03
GTACGGGGG	1.04
GAACTCCACA	1.39
ACGAAAC	1.17
GCATAACGTG	1.02
TGGGGTTAC	1
GCAGCCGCAG	1.28
ATATGCCTTC	0.961

Sequence	switch fluorescence ratio
ACAGATAGTG	0.967
GTAGGTGAGT	0.993
ATTGGGGTGA	0.999
GGTAGATAGG	0.956
CCTGTCAGAT	1.02
GCTTGTGGCA	0.999
CGTTTCCCTT	1.01
GCATGATCAG	0.98
GAGGGAGTGT	1.02
GGTGTTTCTG	0.958
AGATTTTACA	0.967
TAACCTCC	2.38
GCCTACATTT	1
GTTAAACTGG	0.98
GAGGTGAAAA	1.02
GGCTTGGTGC	1
GGAAGCCCGT	1.02
GCGGGGCAAT	1.03
GAAGATCTTG	0.982
AAGGTACTCT	1.15
GGCAGATAGC	1.08
TACATGGTGA	1.05
ACCCGTCGGT	1.06
AGTGGCTGGC	1.01
CTATTCGT	1.05
ATTTGCGGCC	0.991

Sequence	switch fluorescence ratio
GTTAAAGAAT	0.992
ACCGGTATAA	1
GATTGTACAC	1.01
ATTTAACGCT	0.968
TCCGAGTCGT	1.13
GGGTTGGCTT	0.94
GCACGTTCGT	0.97
AAGCTGCGC	1.12
GATTCGTGCT	0.925
AAACTAGGAA	0.986
AACCATAGAG	1.03
CACGGTAGGT	1.07
ACCACGATAA	1.23
CGCCCGCTGG	1.37
AATTGTTT	1.03
GTTGGGTTAC	1.48
AATGACGGGG	0.986
GACGCAAAAA	1.58
TTGGGTGTAA	0.99
TTTAGCTCAC	1.02
AATGATAATT	0.96
TTCCAGCTAA	1.07
CCCGTACTTG	0.975
GCTACGGCGG	1.04
GTTAGGTGTA	1
GCATGCCTTC	1.03

Sequence	switch fluorescence ratio
CGACGAACAA	1.84
TTGCTGGTAG	1.06
CGTCGAATTA	1.02
TCAAGGATAT	1.05
TTTCTGTCAT	0.978
CAAGCGTAAA	1
ATGGAATCTT	0.992
ACCAAGAAGT	1.08
TTTCAGAGGT	0.983
GACCGTTCCT	1.24
GTCGTTTTCG	1.04
CTGATTGGAG	0.989
GCCTAGAGGC	1
TATCACGGGG	1.03
CTTTCGGTAC	2.73
AGTGAAAAT	0.995
GAGCGCCGT	0.955
GACCGCTGAT	1.18
GTTGCTGTTA	1.02
